Test results published in a collection of fitness landscapes (doi:10.1126/science.1257360).
The list shows a part of the results.

B1: PhoQ; a variant is named by its letters at X, in order, P23837 (parent)
chain: MKKLLRLFFPLSLRVRFLLATAAVVLVLSLAYGMVALIGYSVSFDKTTFRLLRGESNLFYTLAKWENNKLHVELPENIDKQSPTMTLIYDENGQLLWAQRDVPWLMKMIQPDWLKSNGFHEIEADVNDTSLLLSGDHSIQQQLQEVREDDDDAEMTHSVAVNVYPATSRMPKLTIVVVDTIPVELKSSYMVWSWFIYVLSANLLLVIPLLWVAAWWSLRPIEALAKEVRELEEHNRELLNPATTRELTSLVRNLNRLLKSERERYDKYRTTLTDLTHSLKTPLXXLQXXLRSLRSEKMSVSDAEPVMLEQISRISQQIGYYLHRASMRGGTLLSRELHPVAPLLDNLTSALNKVYQRKGVNISLDISPEISFVGEQNDFVEVMGNVLDNACKYCLEFVEISARQTDEHLYIVVEDDGPGIPLSKREVIFDRGQRVDTLRPGQGVGLAVAREITEQYEGKIVAGESMLGGARMEVIFGRQHSAPKDE

Variants of: B1
Assay: enrichment ratio after two sorts for PhoP signalling (ratio (wild type AVST 3.29)); higher = more functional
Conditions: with PhoP (E. coli)

| Variant | enrichment ratio |
| --- | --- |
| LNQI | ≤ 0.25 |
| MYAC | ≤ 0.25 |
| IVFC | ≤ 0.25 |
| QMLQ | ≤ 0.25 |
| PMPW | ≤ 0.25 |
| TLMF | ≤ 0.25 |
| TSNI | 9.65 |
| VHWP | ≤ 0.25 |
| FFTS | ≤ 0.25 |
| PIYC | ≤ 0.25 |
| NNCS | 1.41 |
| PFHS | ≤ 0.25 |
| DWIH | ≤ 0.25 |
| YKSI | ≤ 0.25 |
| IEGT | ≤ 0.25 |
| YYAP | ≤ 0.25 |
| GCGK | ≤ 0.25 |
| WETI | ≤ 0.25 |
| DPVE | ≤ 0.25 |
| RGWT | ≤ 0.25 |
| LNFA | ≤ 0.25 |
| NIIM | ≤ 0.25 |
| QQCE | ≤ 0.25 |
| RADH | ≤ 0.25 |
| MYCF | ≤ 0.25 |

| Variant | enrichment ratio |
| --- | --- |
| FYCF | ≤ 0.25 |
| RIYW | ≤ 0.25 |
| HHPS | ≤ 0.25 |
| WEPN | ≤ 0.25 |
| TKME | 0.26 |
| WDSQ | ≤ 0.25 |
| KIES | ≤ 0.25 |
| QRIW | ≤ 0.25 |
| DALI | ≤ 0.25 |
| LFWR | ≤ 0.25 |
| VCTG | 0.404 |
| QRMV | ≤ 0.25 |
| TAWV | 12.8 |
| TRGL | ≤ 0.25 |
| MVKL | ≤ 0.25 |
| LAFT | ≤ 0.25 |
| LEGH | ≤ 0.25 |
| HQIV | ≤ 0.25 |
| FVLW | ≤ 0.25 |
| VHDF | ≤ 0.25 |
| DNYR | ≤ 0.25 |
| KMLI | ≤ 0.25 |
| NLKL | ≤ 0.25 |
| YYNF | ≤ 0.25 |
| TDTL | 1.46 |

| Variant | enrichment ratio |
| --- | --- |
| HQLH | ≤ 0.25 |
| KSPH | ≤ 0.25 |
| YVNS | ≤ 0.25 |
| TNMM | 7.6 |
| YRQQ | ≤ 0.25 |
| VPAK | ≤ 0.25 |
| VCMS | ≤ 0.25 |
| DDEF | ≤ 0.25 |
| FFCP | ≤ 0.25 |
| VNTP | ≤ 0.25 |
| NNCH | ≤ 0.25 |
| MKLM | 7.36 |
| WQRQ | ≤ 0.25 |
| VWNE | ≤ 0.25 |
| EHMR | ≤ 0.25 |
| REPA | ≤ 0.25 |
| GFGY | ≤ 0.25 |
| WSRN | ≤ 0.25 |
| IQLK | ≤ 0.25 |
| SCFE | ≤ 0.25 |
| FDMN | ≤ 0.25 |
| KRCM | ≤ 0.25 |
| HMVS | ≤ 0.25 |
| TVLP | ≤ 0.25 |
| HHYW | ≤ 0.25 |

| Variant | enrichment ratio |
| --- | --- |
| SPTR | ≤ 0.25 |
| FAKW | ≤ 0.25 |
| YPRS | ≤ 0.25 |
| MYVL | ≤ 0.25 |
| YHNF | ≤ 0.25 |
| DFVD | ≤ 0.25 |
| RWYV | ≤ 0.25 |
| ENNV | ≤ 0.25 |
| SYKD | ≤ 0.25 |
| YTNK | ≤ 0.25 |
| VLEV | ≤ 0.25 |
| QTLA | ≤ 0.25 |
| DYLW | ≤ 0.25 |
| RLYK | ≤ 0.25 |
| GIEF | ≤ 0.25 |
| RPAT | ≤ 0.25 |
| PMSW | ≤ 0.25 |
| MAYI | 21.1 |
| WLSY | ≤ 0.25 |
| IHIY | ≤ 0.25 |
| NEYC | ≤ 0.25 |
| AWAY | ≤ 0.25 |
| MMYA | ≤ 0.25 |
| ANHI | ≤ 0.25 |
| PVYC | ≤ 0.25 |

| Variant | enrichment ratio |
| --- | --- |
| LGQT | ≤ 0.25 |
| GQWS | ≤ 0.25 |
| SNHF | ≤ 0.25 |
| EVDK | ≤ 0.25 |
| LRIT | ≤ 0.25 |
| DANA | ≤ 0.25 |
| WVYS | ≤ 0.25 |
| FNMH | ≤ 0.25 |
| GLCQ | 8.58 |
| WTWS | ≤ 0.25 |
| LTQR | ≤ 0.25 |
| QGDL | 4.84 |
| PRLR | ≤ 0.25 |
| REKF | ≤ 0.25 |
| SCSL | 9.02 |
| NNKC | ≤ 0.25 |
| QENP | ≤ 0.25 |
| YDRV | ≤ 0.25 |
| YEEE | ≤ 0.25 |
| RPRY | ≤ 0.25 |
| WSPM | ≤ 0.25 |
| YKCD | ≤ 0.25 |
| ARSH | ≤ 0.25 |
| DPSQ | ≤ 0.25 |
| VFPY | ≤ 0.25 |

| Variant | enrichment ratio |
| --- | --- |
| TTQW | ≤ 0.25 |
| VPAQ | ≤ 0.25 |
| QYRI | ≤ 0.25 |
| FEMT | 3.56 |
| LRHD | ≤ 0.25 |
| PDSP | ≤ 0.25 |
| DRKS | ≤ 0.25 |
| MHLL | ≤ 0.25 |
| YTKL | ≤ 0.25 |
| MITI | 14.6 |
| GNKV | ≤ 0.25 |
| EHLH | ≤ 0.25 |
| TMCT | 19.5 |
| QFQQ | ≤ 0.25 |
| MAII | ≤ 0.25 |
| YRTV | ≤ 0.25 |
| KCFA | ≤ 0.25 |
| RRAG | ≤ 0.25 |
| TVFV | ≤ 0.25 |
| GAYI | ≤ 0.25 |
| FGVQ | ≤ 0.25 |
| KNDN | ≤ 0.25 |
| FPAA | ≤ 0.25 |
| LHWW | ≤ 0.25 |
| WDST | ≤ 0.25 |

| Variant | enrichment ratio |
| --- | --- |
| FVTL | 1.5 |
| DVLP | ≤ 0.25 |
| LETT | ≤ 0.25 |
| RYYI | ≤ 0.25 |
| HHWM | ≤ 0.25 |
| TMAW | ≤ 0.25 |
| HQHW | ≤ 0.25 |
| MKWE | ≤ 0.25 |
| VHCM | ≤ 0.25 |
| KGQH | ≤ 0.25 |
| NNRV | ≤ 0.25 |
| GCRH | ≤ 0.25 |
| GAHN | ≤ 0.25 |
| ECAD | ≤ 0.25 |
| GIID | ≤ 0.25 |
| KSKM | ≤ 0.25 |
| SDLF | ≤ 0.25 |
| HFEP | ≤ 0.25 |
| RFCR | ≤ 0.25 |
| RYPV | ≤ 0.25 |
| YSFT | ≤ 0.25 |
| GTKD | ≤ 0.25 |
| RRDN | ≤ 0.25 |
| VETA | ≤ 0.25 |
| QVYN | ≤ 0.25 |

| Variant | enrichment ratio |
| --- | --- |
| KSEA | ≤ 0.25 |
| VPNK | ≤ 0.25 |
| RPGT | ≤ 0.25 |
| GRDK | ≤ 0.25 |
| RKPC | ≤ 0.25 |
| VDSA | ≤ 0.25 |
| ISYI | ≤ 0.25 |
| NIPE | ≤ 0.25 |
| SLHH | ≤ 0.25 |
| DGSS | ≤ 0.25 |
| SICC | 17.3 |
| YKHR | ≤ 0.25 |
| VMYC | ≤ 0.25 |
| NFRF | ≤ 0.25 |
| NDLY | ≤ 0.25 |
| SRVV | ≤ 0.25 |
| HQLQ | ≤ 0.25 |
| SVTS | 7.51 |
| SFFQ | ≤ 0.25 |
| DWKS | ≤ 0.25 |
